Measurements: PubChem BioAssay AID897 (National Center for Advancing Translational Sciences (NCATS), 2007)
Some of the results follow. These are further read-outs of the screen, such as a control signal, another cell line or another target. No call is given for them. The list favours compounds with an active or inconclusive main result. Words in brackets tell the shape of the fitted curve; partial curves, single points and poor fits give uncertain potencies.

These compounds were tested against Caspase-7 (Homo sapiens) (UniProt P55210) (assay: Confirmation Concentration-Response Assay for Allosteric/Competitive Inhibitors of Caspase-7). Settings: recombinant caspase-7, fluorogenic substrate cleavage; measured here: rate read AC50.
Source text: NIH Molecular Libraries Screening Centers Network [MLSCN]
NIH Chemical Genomics Center [NCGC]
PI Name: Dr. James Wells,
Dr. Enrique Perez-Paya, Dr.Janice Williams, Dr. Dennis Wolan, a person
The caspases (Cysteine Aspartyl Protease) comprise a related family of 14 dimeric proteases that are critical mediators of apoptosis (programmed cell death) and inflammation. The caspases represent an important class of drug targets for stroke, ischemia, cancer and inflammatory diseases. […] One goal of this project was to identify compounds that act as allosteric inhibitors via stabilizing the procaspase form of the enzyme. Previous work in Well's laboratory has shown that such allosteric inhibitors can be identified and these act by binding at the dimer interface of enzyme (Hardy, Lam et al., 2004).
The biochemical assay was configured using purified caspase 7 at a high enzyme concentration to promote formation of the homodimers and thus facilitate the identification of allosteric inhibitors. The overall goal was to identify reversible inhibitors with better drug-like properties than the currently available set of aspartyl-containing peptidomimetics that covalently bind the active site. Caspase 7 was assayed using the profluorescent substrate Ac-DEVD-AFC. After initiation of the assay with substrate the plates were rapidly read using an automated robotic system (Kalypsys, Inc.) to maintain consistent timing. A kinetic mode of detection was used where the initial rate was collected (estimated final product formation was ~10%). Compounds were screened as a concentration-titration series that ranged from 57 uM to 0.7 nM. Below is the protocol used for caspase 7.
NCGC Assay Protocol Summary:
Caspase 7 was prepared in buffer (50 mM HEPES pH 7.5, 50 mM KCl, 200 mM NaCl, 10 mM DTT, 0.1% CHAPS) at a concentration of 66.6 nM and 3 uL was dispensed to all wells using black solid Kalypsys 1536-well plates. 20 nL of DMSO containing compounds was added using a pin-tool (Kalypsys Inc.) to columns 5-48. Then 20 nL of DMSO solution from a control plate was added to columns 1-4. Controls were: Column 1, 16 point titration with each concentration in duplicate (1:1 dilutions in DMSO; final starting concentration was 57 uM) of the caspase 7 inhibitor Ac-DEVD-CHO (Alexis Biochemicals); Column 2, a 16 point titration with each concentration in duplicate of the free AFC fluorophore prepared in DMSO (Alexis Biochemicals), final starting was 40 uM; Column 3 neutral (DMSO only) control; Column 4: DMSO alone, to serve as a negative control (no substrate was added). Then 1 uL of 20 uM the substrate Ac-DEVD-CHO (Alexis Biochemicals) prepared in the same buffer was dispensed to all wells except columns 2 and 4 and the plates were immediately transferred (< 1 min) to the Viewlux. The plates were then exposed using 405 nm excitation/520 nm emission filters for 4 sec and read at 20 sec intervals for 3 min. Final enzyme concentration was 50 nM and the final substrate concentration was 5 uM.
Concentration-response curves were fitted to the data calculated from slope of the linear regression of fluorescent intensity versus time (the rate). The concentration-effect curves were then classified based on curve quality (r2), response magnitude and degree of measured activity. […] Inconclusive compounds had appreciable concentration-dependent effects on both the measured rate and the interpolated basal fluorescence intensity at the start of the reaction but where the basal fluorescent intensity was marginal (e.g. < 10-fold). Inconclusive compounds also encompass highly fluorescent compounds (>100-fold increases in fluorescent intensities values relative to controls) where artificial concentration-dependent decreases in the rate occurred at high compound concentrations due to fluorescent interferences.
Keywords: Caspase 7, proteases, profluorescent, MLSMR, MLSCN, NIH Roadmap, qHTS, NCGC

Sequence of UniProt P55210 (P55210 whole entry, looked up): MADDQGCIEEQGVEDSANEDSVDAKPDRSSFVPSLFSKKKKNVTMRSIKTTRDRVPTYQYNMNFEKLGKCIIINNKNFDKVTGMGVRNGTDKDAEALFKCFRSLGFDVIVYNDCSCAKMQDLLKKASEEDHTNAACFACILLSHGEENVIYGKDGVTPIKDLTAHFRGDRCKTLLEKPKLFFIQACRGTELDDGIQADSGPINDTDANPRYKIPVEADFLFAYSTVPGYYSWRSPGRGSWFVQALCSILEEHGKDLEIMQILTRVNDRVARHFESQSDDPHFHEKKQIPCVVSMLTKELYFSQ

| SMILES | AC50 |
| --- | --- |
| Cc1ccc(NC(=O)N2CCC(c3nc4c(nnn4Cc4cccc(Cl)c4)c(=O)[nH]3)CC2)cc1 | 12.6 µM [falling, full curve] |
| O=C(COC(=O)c1cc(-c2ccco2)nc2ccccc12)NCc1ccc2c(c1)OCO2 | 31.6 µM [falling, single point] |
| O=C1C(Cl)=C(NCCN2CCOCC2)C(=O)c2ncccc21 | 3.16 µM [falling, full curve] |
| CC1(C)C(=O)NC2=C1C(=O)C(=O)c1ccccc12 | 10 µM [falling, full curve] |
| N#CC1=C(N)Oc2cc(O)ccc2C1C1CCCCC1 (stereo not drawn) | 25.1 µM [falling, partial curve] |
| Cc1ccc(N2C(=O)[C@@H]3[C@H](C2=O)C2c4ccccc4C=CN2[C@@H]3C(=O)c2ccco2)c(C)c1 (stereo partly drawn) | 31.6 µM [falling, partial curve] |
| COc1ccc(Cn2c(=O)[nH]c3cc(C(=O)N4CCN(Cc5ccccc5)CC4)ccc3c2=O)cc1 | 15.8 µM [falling, full curve] |
| COc1cc2c(C=O)c3c4c(cc(OC)c(OC)c4c2cc1OC)CCN3C | 20 µM [falling, partial curve] |
| COc1cc2c(cc1OC)CN(C(=O)CSc1nc3[nH]ncc3c(=O)n1-c1ccccc1)CC2 | 15.8 µM [falling, partial curve] |
| O=C(c1ccc(Cl)c(Cl)c1)N(Cc1ccco1)c1ccc(O)cc1 | 12.6 µM [falling, full curve] |
| O=C1Cc2ccccc2C(=O)N1CCc1ccccc1 | 10 µM [falling, full curve] |
| CCCCCCC(=O)N1CCC(c2nc3c(nnn3Cc3ccccc3Cl)c(=O)[nH]2)CC1 | 3.98 µM [falling, full curve] |
| Cc1cc(C)cc(C(=O)N(C)[C@H](Cc2ccc(-c3ccccc3)cc2)C(=O)N[C@@H](Cc2c[nH]c3ccccc23)C(=O)O)c1 | 15.8 µM [falling, full curve] |
